The campaign covered roughly 280,000 compounds. About 540 (0.19%) were called active. The inconclusive results got no clear call from the source; some entries with a clear call stand among them for comparison. Calls follow the shape of the dose curve; as a rule, active = well fitted activation curve with a large enough effect; inconclusive = small, poorly fitted or top-dose-only effect; inactive = flat fitted curve, though single readings scatter. Where the call is inconclusive, the potency comes from a doubtful curve fit.
Assay: Quantitative High-Throughput Screen for Regulators of Epigenetic Control; also: nearly all actives have a fitted effect of over 60% in size; as to GFP activation: % of control where 0% means no effect
Settings: murine LDR cells, GFP reporter derepression, 30 h; GFP activation: at 53.9 µM (top of the series)
Procedure, shortened: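 Readout is the number of GFP-expressing murine LDR cells, counted by cytometry following washing. Cells were treated with compound for 30 h at 37 C; the stably integrated CMV-GFP locus is normally silent.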
Potency is read from the fitted curve at half-maximal effect; tags tell the direction and shape of the fitted curve.

Row | SMILES | Potency | GFP activation
1 | Oc1ccc(NCc2cccc(OCc3ccc(F)cc3)c2)cc1 | inconclusive: 35.5 µM [activator, single point] | –
2 | COc1ccccc1CN(Cc1cc2cc(C)ccc2[nH]c1=O)Cc1nnnn1Cc1ccco1 | inconclusive: 31.6 µM [activator, single point] | –
3 | Cc1ccc(C(C[N+](=O)[O-])c2c(C)[nH]n(-c3ccccc3)c2=O)cc1 (stereo unspecified) | inconclusive: 35.5 µM [activator, single point] | –
4 | O=C(N/N=C\c1ccc(-c2ccccc2[N+](=O)[O-])o1)C1COc2ccccc2O1 (stereo unspecified) | – | inactive: 3.45%
5 | FC(F)Sc1ccc(NC(=S)NC(c2ccccc2)c2ccccc2)cc1 | inconclusive: 35.5 µM [activator, single point] | –
6 | O=C(N/N=C/C=C/c1ccco1)c1ccccc1Cl | – | inactive: 13.2%
7 | CCCN1C(=O)/C(=C/c2ccc(C)o2)SC1=Nc1ccc(OC)cc1 | inconclusive: 31.6 µM [activator, single point] | –
8 | CC1CN(c2nc3ccccc3nc2C(C#N)C(=O)OC2CCCCC2)CC(C)O1 (stereo unspecified) | inconclusive: 31.6 µM [activator, single point] | –
9 | Cc1ccc(CNC(=O)C(C)n2nc(C)c3sc4ccccc4c3c2=O)cc1 (stereo unspecified) | inconclusive: 10 µM [activator, partial curve, poor fit] | –
10 | O=C(CSc1ncnc2scc(-c3ccccc3)c12)N1CCN(Cc2ccc3c(c2)OCO3)CC1 | – | inactive: -0.862%
11 | Cc1cc(C)c(NC(=O)Cn2c(=O)n(Cc3ccc(C(=O)NCc4ccc5c(c4)OCO5)cc3)c(=O)c3ccccc32)c(C)c1 | inconclusive: 11.2 µM [activator, partial curve] | –
12 | CCn1c(SCC(=O)c2c[nH]c3ccccc23)nc2cc(S(=O)(=O)N3CCOCC3)ccc21 | – | inactive: 8.49%
13 | O=C(Oc1c(CN2CCOCC2)cc(Cl)c2cccnc12)c1ccccc1Br | inconclusive: 22.4 µM [activator, single point] | –
14 | C[n+]1ccn(CC(=O)c2ccc(Br)cc2)c1 | inconclusive: 35.5 µM [activator, single point] | –
15 | N#Cc1c(-c2ccccc2)c(C#N)c2nc3ccccc3n2c1N | inconclusive: 20 µM [activator, single point] | –
16 | Cc1ccc2nsnc2c1NC(=O)c1ccc(-c2cc(Cl)ccc2Cl)o1 | – | inactive: 2.69%
17 | COC(=O)c1sc2c(c1C)c(=O)n(-c1ccccc1)c(=O)n2CC(=O)Nc1cccc(C)c1 | inconclusive: 25.1 µM [activator, single point] | –
18 | CCc1cccc(NC(=O)CCc2c(C)nc3c(-c4ccccc4)c(C)nn3c2C)c1 | – | inactive: -0.278%
19 | CS(=O)(=O)Nc1ccccc1C(=O)OCc1cc(=O)n2nc(C3CCCCC3)sc2n1 | inconclusive: 35.5 µM [activator, single point] | –
20 | CCOC(=O)c1ccc(NC(=O)Cn2ncc(Cl)c(Cl)c2=O)cc1 | inconclusive: 5.01 µM [activator, single point] | –
21 | CCOC(=O)c1ccc(N=c2sc(C(=O)OC)cc(=O)n2-c2ccc(C(=O)OCC)cc2)cc1 | – | inactive: 1.85%
22 | COc1cc(C(=O)OCC(=O)NCc2ccc(F)cc2)cc(NC(=O)c2cccs2)c1OC | inconclusive: 17.8 µM [activator, single point] | –

Row | SMILES | Potency | GFP activation
23 | O=c1oc2c3c4c(cc2c(C(F)(F)F)c1CCN1CCOCC1)CCCN4CCC3 | inconclusive: 5.01 µM [activator, full curve] | –
24 | COc1ccc2o/c(=N\O)c(C(=O)Nc3ccccc3OC)cc2c1 | – | inactive: -4.06%
25 | CCOC(=O)N1CCN(c2ccc(C(=O)CC)cc2F)CC1 | inconclusive: 6.31 µM [activator, single point] | –
26 | Oc1ccc(NCc2ccc(OCc3ccccc3)cc2)cc1 | inconclusive: 31.6 µM [activator, single point] | –
27 | CCOc1ccccc1C1N=C(c2ccc(OC)cc2)CC(c2ccccc2O)N1 (stereo unspecified) | inconclusive: 17.8 µM [activator, single point] | –
28 | COc1cccc(NC(=O)Cn2c(=O)n(CCCCC(=O)NCc3ccccc3Cl)c(=O)c3ccccc32)c1 | – | inactive: 1.77%
29 | O=C(NC(=S)N1CCc2ccccc21)c1ccccc1Br | inconclusive: 31.6 µM [activator, single point] | –
30 | CC(C)NC(=O)C1(O)c2ccccc2NC(=O)N1c1ccc(Cl)c(Cl)c1 (stereo unspecified) | inconclusive: 25.1 µM [activator, single point] | –
31 | COCCN(Cc1ccccc1)C(=S)Nc1ccc(Cl)cc1 | – | inactive: 0.0725%
32 | CCN1/C(=C/C=C/c2oc3ccc4ccccc4c3[n+]2CC)Oc2ccc3ccccc3c21 | active: 0.126 µM | –
33 | COc1ccc(/C=C/C(=O)Nc2ccc(OC)cc2[N+](=O)[O-])cc1 | inconclusive: 31.6 µM [activator, single point] | –
34 | CNc1ccc(Br)cc(C(=O)/C=C/c2cccc(OC)c2OC)c1=O | inconclusive: 35.5 µM [activator, single point] | –
35 | CCOC(=O)CSc1cc(-c2ccccc2)nc2ncnn12 | inconclusive: 31.6 µM [activator, single point] | –
36 | O=C(Oc1cccc2cccnc12)c1ccc2c(c1)OCCO2 | inconclusive: 31.6 µM [activator, single point] | –
37 | O=C(NC(=S)Nc1ccc2c(c1)C(=O)c1ccccc1C2=O)c1ccc(F)cc1 | inconclusive: 15.8 µM [activator, single point] | –
38 | CC(Sc1cccc[n+]1[O-])C(=O)Nc1cccc(S(=O)(=O)N2CCOCC2)c1 (stereo unspecified) | inconclusive: 35.5 µM [activator, single point] | –
39 | CC(C)c1cc(-c2nc(-c3cccc(Cl)c3)no2)n[nH]1 | inconclusive: 35.5 µM [activator, single point] | –
40 | O=C(O)c1c(-c2ccccc2)c(-c2ccccc2)nc2ccccc12 | inconclusive: 35.5 µM [activator, single point] | –
41 | CCOC(=O)C(C(=O)OCC)C(Nc1cccc(Br)c1)c1ccccc1 (stereo unspecified) | inconclusive: 31.6 µM [activator, single point] | –
42 | N#C/C(=C\c1ccc(-c2cccc(Cl)c2)o1)C(=O)Nc1cccc(C(F)(F)F)c1 | active: 11.2 µM | –
43 | CCOc1ccc2c(CC)cc(=O)oc2c1OCC | – | inactive: 0.272%
44 | NNC(=S)NC1CCCCCCCCCCC1 | inconclusive: 35.5 µM [activator, single point] | –

Row | SMILES | Potency | GFP activation
45 | CCN1CCN(C(c2ccc(F)cc2)c2sc3nc(-c4ccco4)nn3c2O)CC1 (stereo unspecified) | inconclusive: 0.398 µM [activator, full curve, poor fit] | –
46 | CSc1ccc(/C=C/C(=O)c2ccc(NC(=O)Cc3ccccc3)cc2)cc1 | inconclusive: 35.5 µM [activator, single point] | –
47 | CCCCOC(=O)C1C2C=C[C@]3(CN(CCCOC)C(=O)[C@H]13)O2 (stereo partly specified) | inconclusive: 15.8 µM [activator, single point] | –
48 | COC(=O)c1ccc(NC(=S)Nc2ccc3ccccc3c2)cc1 | – | inactive: -2.97%
49 | CC1=CC(C)(C)Nc2ccc(OC(=O)CCN3C(=O)c4ccccc4C3=O)cc21 | inconclusive: 10 µM [activator, single point] | –
50 | Cc1ccc2c(c1)C1CN(C)CCC1N2C(=S)NC(=O)c1ccc(Br)cc1 (stereo unspecified) | inconclusive: 28.2 µM [activator, single point] | –
51 | CN(/N=C/c1c[nH]c2ccccc12)c1cnn(-c2ccc(F)c(Cl)c2)c(=O)c1Cl | inconclusive: 14.1 µM [activator, single point] | –
52 | CN1/C(=C\C=N\NC(=O)c2cccnc2)C(C)(C)c2ccccc21 | inconclusive: 31.6 µM [activator, single point] | –
53 | CCCc1nn2c(=O)cc(COC(=O)c3cccc(NC(=O)COc4ccc(F)cc4)c3)nc2s1 | inconclusive: 11.2 µM [activator, partial curve, poor fit] | –
54 | COc1ccc(CCNc2ccc(C(CC(N)=O)NC(=O)Cc3cccc4ccccc34)cc2[N+](=O)[O-])cc1 (stereo unspecified) | inconclusive: 17.8 µM [activator, single point] | –
55 | Cc1cc2cc(CCNC(=O)C(=O)c3c[nH]c4ccccc34)c(=O)[nH]c2cc1C | inconclusive: 6.31 µM [activator, single point] | –
56 | CCNc1nc(NC(C)CC)nc(ON=C(C)C)n1 (stereo unspecified) | – | inactive: 1.59%
57 | CCN(C(=S)Nc1cccnc1)c1cccc2ccccc12 | – | inactive: 1.14%
58 | N#C/C(=C\c1cn(-c2ccccc2)nc1-c1cc2ccccc2o1)c1nc2ccccc2[nH]1 | inconclusive: 0.891 µM [activator, partial curve, poor fit] | –
59 | Cc1ccc(OCC(=O)NCCC2=CCCCC2)cc1 | inconclusive: 15.8 µM [activator, single point] | –
60 | COc1cccc(-n2nc(C#N)c(Cl)cc2=O)c1 | inconclusive: 5.01 µM [activator, single point] | –
61 | Cc1ccc2nc(-c3cccnc3)cc(C(=O)N3CCN(c4ccc([N+](=O)[O-])cc4)CC3)c2c1 | – | inactive: 4.62%
62 | O=C1c2cccc3c(N4CCCCC4)ccc(c23)C(=O)N1c1ccc(O)cc1 | inconclusive: 17.8 µM [activator, partial curve] | –
63 | COCCN(CCOC)c1nc(C)nc2c1nc(-c1ccccc1)n2CCN1CCCC1 | – | inactive: 5.44%
64 | N#Cc1ccc(C(=O)Nc2ccc(N3CCN(C(=O)c4ccco4)CC3)cc2)c(F)c1 | inconclusive: 35.5 µM [activator, single point] | –
65 | Cc1cccn2cc(-c3ccc(F)cc3)nc12 | inconclusive: 3.55 µM [activator, single point] | –
66 | COc1cc(O)c(C(=O)/C=C/c2ccc(OC)c(O)c2)c(OC)c1 | inconclusive: 35.5 µM [activator, single point] | –

Source: PubChem BioAssay AID1865 (National Center for Advancing Translational Sciences (NCATS), 2009)
